Experimental data taken from the supplement of paper PMC4967469.
The IC50 comes from the fitted curve, where viability falls to half of the control; where the fit passes the top or lowest dose, that dose stands as a limit. AUC is the area under the same curve over the 256-fold range up to the top dose, as a fraction; it is 1 without any effect and falls as sensitivity rises. Where the top dose is marked as inferred, it comes from the curve model; the source does not state it.

The cell lines below were run with Cn1cc(C2=C(c3cn(C4CCN(Cc5ccccn5)CC4)c4ccccc34)C(=O)NC2=O)c2ccccc21 [LY317615] (assay: Viability of human cancer cell lines after 72 h of drug (GDSC screen)). Details: top dose inferred.
Description: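 Human cancer cell lines in 384-well plates, medium with 10% serum, drug for 72 h over a 256-fold dose range (nine 2-fold or five 4-fold steps up to the top dose). Adherent lines were fixed and stained with the nucleic acid dye Syto60, suspension lines read with resazurin; signal relative to control wells, capped at 0 and 100%. One two-parameter sigmoid per drug and line, fitted in a mixed model over all curves with the slope shared within a line.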

In order of rising AUC:
1. MV-4-11 (leukaemia, suspension, top dose 20 µM)  0.28
2. LOUCY (T-cell lymphoblastic leukaemia, suspension, top dose 20 µM)  0.467
3. OV-7 (ovary, adherent, top dose 20 µM)  0.514
4. SW900 (lung squamous cell carcinoma, adherent, top dose 20 µM)  0.535
5. NCI-H2227 (small cell lung carcinoma, semi-adherent, top dose 20 µM)  0.586
6. LNCaP-Clone-FGC (prostate, adherent, top dose 20 µM)  0.589
7. ML-2 (acute myeloid leukaemia, suspension, top dose 20 µM)  0.648
8. ES7 (Ewing sarcoma, adherent, top dose 20 µM)  0.662
9. H2595 (mesothelioma, adherent, top dose 20 µM)  0.667
10. RVH-421 (melanoma, adherent, top dose 20 µM)  0.674
11. U031 (kidney, adherent, top dose 20 µM)  0.696
12. MOLT-13 (T-cell lymphoblastic leukaemia, suspension, top dose 20 µM)  0.697
13. MEG-01 (chronic myeloid leukaemia, suspension, top dose 20 µM)  0.708
14. HCC1937 (breast, adherent, top dose 20 µM)  0.725
15. EFO-27 (ovary, adherent, top dose 20 µM)  0.761
16. AU565 (breast, adherent, top dose 20 µM)  0.768
17. NCI-H1915 (large cell lung carcinoma, adherent, top dose 20 µM)  0.772
18. MLMA (hairy cell leukaemia, semi-adherent, top dose 20 µM)  0.794
19. HMV-II (melanoma, adherent, top dose 20 µM)  0.827
20. NCI-H196 (small cell lung carcinoma, adherent, top dose 20 µM)  0.837
21. HD-MY-Z (Hodgkin lymphoma, adherent, top dose 20 µM)  0.838
22. GI-ME-N (neuroblastoma, adherent, top dose 20 µM)  0.854
23. KCL-22 (chronic myeloid leukaemia, suspension, top dose 20 µM)  0.872
24. TUR (B-cell lymphoma, suspension, top dose 20 µM)  0.88
25. LB831-BLC (bladder, adherent, top dose 20 µM)  0.88
26. EFM-192A (breast, adherent, top dose 20 µM)  0.889
27. SU8686 (pancreas, adherent, top dose 20 µM)  0.895
28. SK-N-FI (neuroblastoma, adherent, top dose 20 µM)  0.904
29. LB2518-MEL (melanoma, adherent, top dose 20 µM)  0.907
30. A101D (melanoma, adherent, top dose 20 µM)  0.907
31. NCI-H1436 (small cell lung carcinoma, suspension, top dose 20 µM)  0.91
32. OCI-AML2 (acute myeloid leukaemia, suspension, top dose 20 µM)  0.911
33. NCI-H661 (large cell lung carcinoma, adherent, top dose 20 µM)  0.912
34. SW156 (kidney, adherent, top dose 20 µM)  0.913
35. COLO-320-HSR (large intestine, suspension, top dose 20 µM)  0.919
36. FADU (head and neck, adherent, top dose 20 µM)  0.919
37. HT-3 (cervix, adherent, top dose 20 µM)  0.922
38. SK-MEL-5 (melanoma, adherent, top dose 20 µM)  0.923
39. RERF-LC-MS (lung adenocarcinoma, adherent, top dose 20 µM)  0.924
40. A427 (non-small cell lung carcinoma, adherent, top dose 20 µM)  0.938
41. KNS-42 (glioma, adherent, top dose 20 µM)  0.939
42. HGC-27 (stomach, adherent, top dose 20 µM)  0.942
43. NCI-H446 (small cell lung carcinoma, semi-adherent, top dose 20 µM)  0.942
44. H-EMC-SS (chondrosarcoma, adherent, top dose 20 µM)  0.943
45. NCI-H630 (large intestine, adherent, top dose 20 µM)  0.943
46. SW1783 (glioma, adherent, top dose 20 µM)  0.957
47. EW-16 (Ewing sarcoma, adherent, top dose 20 µM)  0.958
48. MS751 (cervix, adherent, top dose 20 µM)  0.96
49. NUGC-4 (stomach, adherent, top dose 20 µM)  0.962
50. KP-N-YN (neuroblastoma, adherent, top dose 20 µM)  0.963
51. LOXIMVI (melanoma, semi-adherent, top dose 20 µM)  0.965
52. BB49-HNC (head and neck, adherent, top dose 20 µM)  0.973
53. EW-11 (Ewing sarcoma, adherent, top dose 20 µM)  0.981
54. LB2241-RCC (kidney, adherent, top dose 20 µM)  0.982
55. DMS-79 (small cell lung carcinoma, suspension, top dose 20 µM)  0.983
56. Hs939-T (melanoma, adherent, top dose 20 µM)  0.986
57. Hep 3B2_1-7 (liver, adherent, top dose 20 µM)  0.987
58. CAL-51 (breast, adherent, top dose 20 µM)  0.988
59. LB373-MEL-D (melanoma, adherent, top dose 20 µM)  0.989

“DMS-79 (small cell lung carcinoma, suspension, top dose 20 µM)” and “COLO-320-HSR (large intestine, suspension, top dose 20 µM)” cannot be ordered by IC50: > 20 µM for the first, > 20 µM for the second.

“LB2241-RCC (kidney, adherent, top dose 20 µM)” and HT-3 (cervix, adherent, top dose 20 µM) cannot be ordered by IC50: > 20 µM for the first, > 20 µM for the second.

First: LNCaP-Clone-FGC (prostate, adherent, top dose 20 µM)
Second: MLMA (hairy cell leukaemia, semi-adherent, top dose 20 µM)
The IC50 of the first is 4.1-fold lower: 2.26 µM for the first, 9.33 µM for the second.

First: EW-16 (Ewing sarcoma, adherent, top dose 20 µM)
Second: U031 (kidney, adherent, top dose 20 µM)
The IC50 of the first is higher: > 20 µM for the first, 4.53 µM for the second.

“NCI-H661 (large cell lung carcinoma, adherent, top dose 20 µM)” and “EFM-192A (breast, adherent, top dose 20 µM)” cannot be ordered by IC50: > 20 µM for the first, > 20 µM for the second.

Compared with “EFO-27 (ovary, adherent, top dose 20 µM)”, “SW900 (lung squamous cell carcinoma, adherent, top dose 20 µM)” is 5.6-fold lower in IC50: 8.83 µM for the first, 1.59 µM for the second.

Going from “OCI-AML2 (acute myeloid leukaemia, suspension, top dose 20 µM)” to “NCI-H2227 (small cell lung carcinoma, semi-adherent, top dose 20 µM)”, the IC50 falls from 15.4 µM to 2.22 µM (6.9-fold).

Compared with “HD-MY-Z (Hodgkin lymphoma, adherent, top dose 20 µM)”, “H-EMC-SS (chondrosarcoma, adherent, top dose 20 µM)” is higher in IC50: 13.6 µM for the first, > 20 µM for the second.

Going from “LB2518-MEL (melanoma, adherent, top dose 20 µM)” to “KCL-22 (chronic myeloid leukaemia, suspension, top dose 20 µM)”, the IC50 falls from > 20 µM to 14 µM.

“HGC-27 (stomach, adherent, top dose 20 µM)” and “A427 (non-small cell lung carcinoma, adherent, top dose 20 µM)” cannot be ordered by IC50: > 20 µM for the first, > 20 µM for the second.

First: RVH-421 (melanoma, adherent, top dose 20 µM)
Second: ML-2 (acute myeloid leukaemia, suspension, top dose 20 µM)
The IC50 of the first is 1.5-fold higher: 4.59 µM for the first, 3.05 µM for the second.

“FADU (head and neck, adherent, top dose 20 µM)” and “KP-N-YN (neuroblastoma, adherent, top dose 20 µM)” cannot be ordered by IC50: > 20 µM for the first, > 20 µM for the second.

First: MEG-01 (chronic myeloid leukaemia, suspension, top dose 20 µM)
Second: TUR (B-cell lymphoma, suspension, top dose 20 µM)
The IC50 of the first is 3.9-fold lower: 4.62 µM for the first, 18 µM for the second.

First: RERF-LC-MS (lung adenocarcinoma, adherent, top dose 20 µM)
Second: LOUCY (T-cell lymphoblastic leukaemia, suspension, top dose 20 µM)
The IC50 of the first is higher: > 20 µM for the first, 1.03 µM for the second.

“A101D (melanoma, adherent, top dose 20 µM)” and “BB49-HNC (head and neck, adherent, top dose 20 µM)” cannot be ordered by IC50: > 20 µM for the first, > 20 µM for the second.

First: SU8686 (pancreas, adherent, top dose 20 µM)
Second: HCC1937 (breast, adherent, top dose 20 µM)
The IC50 of the first is higher: > 20 µM for the first, 6.07 µM for the second.

“LOXIMVI (melanoma, semi-adherent, top dose 20 µM)” and “Hs939-T (melanoma, adherent, top dose 20 µM)” cannot be ordered by IC50: > 20 µM for the first, > 20 µM for the second.

“NCI-H446 (small cell lung carcinoma, semi-adherent, top dose 20 µM)” and “GI-ME-N (neuroblastoma, adherent, top dose 20 µM)” cannot be ordered by IC50: > 20 µM for the first, > 20 µM for the second.

First: MOLT-13 (T-cell lymphoblastic leukaemia, suspension, top dose 20 µM)
Second: HMV-II (melanoma, adherent, top dose 20 µM)
The IC50 of the first is 3.9-fold lower: 4.13 µM for the first, 16.1 µM for the second.

Compared with “KNS-42 (glioma, adherent, top dose 20 µM)”, “H2595 (mesothelioma, adherent, top dose 20 µM)” is lower in IC50: > 20 µM for the first, 4.39 µM for the second.

Compared with “NCI-H1436 (small cell lung carcinoma, suspension, top dose 20 µM)”, “NCI-H196 (small cell lung carcinoma, adherent, top dose 20 µM)” is lower in IC50: > 20 µM for the first, 14.3 µM for the second.

Compared with “NCI-H1915 (large cell lung carcinoma, adherent, top dose 20 µM)”, “NCI-H630 (large intestine, adherent, top dose 20 µM)” is higher in IC50: 7.85 µM for the first, > 20 µM for the second.

“SW1783 (glioma, adherent, top dose 20 µM)” and “LB373-MEL-D (melanoma, adherent, top dose 20 µM)” cannot be ordered by IC50: > 20 µM for the first, > 20 µM for the second.

“CAL-51 (breast, adherent, top dose 20 µM)” and “LB831-BLC (bladder, adherent, top dose 20 µM)” cannot be ordered by IC50: > 20 µM for the first, > 20 µM for the second.

Going from “NUGC-4 (stomach, adherent, top dose 20 µM)” to “AU565 (breast, adherent, top dose 20 µM)”, the IC50 falls from > 20 µM to 8.31 µM.

“EW-11 (Ewing sarcoma, adherent, top dose 20 µM)” and “SK-MEL-5 (melanoma, adherent, top dose 20 µM)” cannot be ordered by IC50: > 20 µM for the first, > 20 µM for the second.

First: MS751 (cervix, adherent, top dose 20 µM)
Second: ES7 (Ewing sarcoma, adherent, top dose 20 µM)
The IC50 of the first is higher: > 20 µM for the first, 3.57 µM for the second.

“Hep 3B2_1-7 (liver, adherent, top dose 20 µM)” and “SK-N-FI (neuroblastoma, adherent, top dose 20 µM)” cannot be ordered by IC50: > 20 µM for the first, > 20 µM for the second.

Going from “MV-4-11 (leukaemia, suspension, top dose 20 µM)” to “SW156 (kidney, adherent, top dose 20 µM)”, the IC50 rises from 0.341 µM to > 20 µM.

Cell Line OV-7 (ovary, adherent, top dose 20 µM) has an IC50 of 1.39 µM.
